The record followed here is PubChem BioAssay AID360 (National Center for Advancing Translational Sciences (NCATS), 2006).

Each structure is given as a SMILES string. About 550 (1.1%) of roughly 48,000 compounds were called active. Roughly 4% stayed inconclusive and do not appear here. Cut-off read from the data, not from the text of the source: active = potency below about 15 µM; inconclusive = mostly about 16 µM to 33 µM; inactive = weaker than that. This is one part of the list.
Potency is the fitted concentration of half-maximal effect.

Chain of UniProt P04062 (P04062 whole entry, looked up): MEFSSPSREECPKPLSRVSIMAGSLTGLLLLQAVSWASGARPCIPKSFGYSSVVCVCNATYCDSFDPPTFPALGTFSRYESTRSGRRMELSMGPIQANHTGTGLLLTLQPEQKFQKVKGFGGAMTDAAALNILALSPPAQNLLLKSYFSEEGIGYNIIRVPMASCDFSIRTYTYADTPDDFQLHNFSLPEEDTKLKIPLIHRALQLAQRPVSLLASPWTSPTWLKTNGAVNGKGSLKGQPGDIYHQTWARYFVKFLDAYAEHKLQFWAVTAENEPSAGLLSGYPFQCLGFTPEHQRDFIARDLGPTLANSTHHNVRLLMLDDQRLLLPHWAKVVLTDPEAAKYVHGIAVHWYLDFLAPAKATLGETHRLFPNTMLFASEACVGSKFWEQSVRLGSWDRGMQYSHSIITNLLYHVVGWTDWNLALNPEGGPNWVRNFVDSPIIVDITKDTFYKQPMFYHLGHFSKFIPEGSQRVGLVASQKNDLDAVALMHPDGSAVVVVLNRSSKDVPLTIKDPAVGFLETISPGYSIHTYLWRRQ

This assay addresses Lysosomal acid glucosylceramidase (Homo sapiens) (UniProt P04062). Description: Glucocerebrosidase.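 Note: the screen sought inhibitors.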 To be noted: purified enzyme, resorufin glucoside fluorescence (screen aimed at inhibitors), 20 min. In a few lines:
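Compounds titrated against 0.2 nM normal enzyme, 30 uM resorufin beta-D-glucopyranoside substrate, citrate/phosphate buffer with taurocholate and tween-20, pH 5.9. Reaction ran 20 min at room temperature; fluorescence (Ex 548/Em 600) gave AC50.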
On to `CC(=O)c1ccc(OCC(=O)NC2CCS(=O)(=O)C2)cc1` (stereo unspecified), for which the Potency is inactive: > 76.9 µM.
The figure for `Cc1cc2c(cc1C)NC(c1cccnc1)C1=C(CC(C)(C)CC1=O)N2` (stereo unspecified) is inactive: > 76.9 µM.
On to `CC(=O)C1=C(O)C(=O)N(CCN2CCOCC2)C1c1ccccc1` (stereo unspecified), for which the Potency was inactive: > 76.9 µM.
Turning to `CN(C(=O)c1ccc(=O)[nH]c1)C1(C(=O)NC2CCCCC2)CCCCC1`, the Potency is inactive: > 76.9 µM.
Consider `CCn1c(=O)cc(SCC(=O)NCC2CCCO2)c2ccccc21` (stereo unspecified), for which the Potency was inactive: > 76.9 µM.
The figure for `O=C(NC1CCCC1)C(c1ccc(N2CCOCC2)cc1)N(Cc1ccccc1)C(=O)c1ccco1` (stereo unspecified) is inactive: > 76.9 µM; for `CCOC(=O)C1CCN(C(=O)CCCN2C(=O)c3ccccc3C2=O)CC1` it is inactive: > 76.9 µM; for `Cc1noc(/C=C/c2ccco2)c1S(=O)(=O)N1CCC(C(=O)N(C)Cc2ccccc2)CC1` it is inactive: > 76.9 µM.
Consider `Cc1nc2sccn2c1P(c1c(C)nc2sccn12)c1c(C)nc2sccn12`, for which the Potency was inactive: > 76.9 µM.
In the case of `Cc1cc2ncn(C(=O)c3ccc4c(c3)OCO4)c2cc1C`, the Potency is inactive: > 76.9 µM.
As to `CCN(CC)c1nc2cc(OC)ccc2cc1C#N`, the Potency is inactive: > 76.9 µM.
For `Cc1cc(C(=O)N2CCc3ccccc32)c2cc(F)ccc2n1` the value was inactive: > 76.9 µM; for `NC(=O)C1(N2CCCCC2)CCN(C(=O)CSc2nc3ccccc3o2)CC1`, inactive: > 76.9 µM; for `Cc1cc(C)c2c(N)c(C(=O)NCc3ccco3)sc2n1`, inactive: > 76.9 µM.
For the compound `O=C1CSC(=NC2CCCCC2)N1`, the Potency is inactive: > 76.9 µM.
In the case of `O=C(c1cccs1)N1CCN(C(=O)c2ccco2)c2ccccc2C1`, the Potency was inactive: > 76.9 µM.
Consider `Cc1cc(N2CCCCC2)nc(SCC(=O)c2ccccc2)n1`, for which the Potency is inactive: > 76.9 µM.
Take `O=C(Nc1sc2c(c1C(=O)NCc1cccnc1)CCCC2)c1ccco1`: the Potency is inactive: > 76.9 µM.
For the compound `O=C1CC(N2CCC(c3nc4ccccc4o3)CC2)C(=O)N1Cc1cccs1` (stereo unspecified), the Potency was inactive: > 76.9 µM.
As to `COCCOC(=O)C1=C(C)N=C2SCCC(=O)N2C1c1cc(Br)ccc1OC` (stereo unspecified), the Potency was inactive: > 76.9 µM.
`O=CNCC(=O)NC1CCCCCC1`: the Potency is inactive: > 76.9 µM.
Consider `CC(=O)OCP(C)(=O)COC(C)=O`, for which the Potency is inactive: > 76.9 µM.
For `O=c1cc(N2CCN(c3cccc(Cl)c3)CC2)[nH]c(=O)n1C1CCCCC1` the value was inactive: > 76.9 µM; for `CCOC(=O)C1(Cc2ccc(O)cc2)NC(c2ccccc2F)C2C(=O)N(C)C(=O)C21` (stereo unspecified), inactive: > 76.9 µM; for `CCOC(=O)C(C)Sc1nc2ccccc2c(=O)n1CC` (stereo unspecified), inactive: > 76.9 µM.
The figure for `CC(C)(C)CC(=O)Nc1nnc(-c2cccs2)s1` is inactive: > 76.9 µM; for `COc1ccccc1CNC(=O)C(C)NS(=O)(=O)c1ccccc1` (stereo unspecified) it is inactive: > 76.9 µM; for `O=C1c2ccccc2C(=O)N1Cc1nc(-c2ccncc2)no1` it is inactive: > 76.9 µM.
On to `CC(=O)N1CCc2cc(S(=O)(=O)CCC(=O)NCc3cccs3)ccc21`, for which the Potency is inactive: > 76.9 µM.
For `[O-]/[N+](=C/c1ccc(F)cc1)c1ccccc1` the value was inactive: > 76.9 µM; for `OC(CN1CCCCC1)Cn1c(C(F)(F)F)nc2ccccc21` (stereo unspecified), inactive: > 76.9 µM; for `Cc1cc(N)c(-n2cc3c(=O)n(C)c(=O)n(C)c3c2)cc1C`, inactive: > 76.9 µM.
Regarding `C=CCn1c(SCC(=O)Nc2ccc(C)cc2C)nnc1-c1cccnc1`, the Potency is inactive: > 76.9 µM.
As for `N=c1n(Cc2ccc(Cl)cc2)c2ccccc2n1CC(O)c1ccco1` (stereo unspecified), the Potency is inactive: > 76.9 µM.
The figure for `FC(F)(F)c1ccc(N2CCN(c3cc(-c4ccccc4)nc4ncnn34)CC2)nc1` is inactive: > 76.9 µM; for `Cc1nc(S(=O)(=O)N(C)Cc2ccccc2)c(C#N)c(C)c1Cl` it is inactive: > 76.9 µM; for `COc1ccc2nc(C)[nH]c(=O)c2c1` it is inactive: > 76.9 µM.
Consider `Cc1ccc(C(=O)Nc2nncs2)cc1S(=O)(=O)N1CCOCC1`, for which the Potency is inactive: > 76.9 µM.
For `COCc1cc(C)nc(NC2CCCCC2)c1C#N` the value was inactive: > 76.9 µM; for `Cc1ccc(S(=O)(=O)N(C)CCCC(=O)n2nc(C)cc2C)cc1`, inactive: > 76.9 µM.
For `Nc1nc(CN2CCN(c3ccccc3F)CC2)nc(Nc2ccccc2)n1` the value was active: 2.32 µM.
With `O=C(Nc1cccc(Oc2c(F)c(F)c(F)c(F)c2F)c1)N1C[C@@H]2C[C@@H](C1)c1cccc(=O)n1C2`, the Potency is inactive: > 76.9 µM.
On to `O=C(O)CCc1nc(-c2cccs2)no1`, for which the Potency was inactive: > 76.9 µM.
In the case of `Cc1ccc2cc(C(c3nnnn3C3CCCC3)N3CCOCC3)c(=O)[nH]c2c1C` (stereo unspecified), the Potency is inactive: > 76.9 µM.
As for `CCOc1cc(NC(=O)c2cnccn2)c(OCC)cc1NC(=O)c1ccc(OC)cc1`, the Potency was inactive: > 76.9 µM.
For the compound `COc1ccc(OC)c(NC(=O)CSc2nc(C)cs2)c1`, the Potency is inactive: > 76.9 µM.
As for `COc1ccc(C(=O)Nn2c(C)ccc2C)cc1OC`, the Potency is inactive: > 76.9 µM.
Turning to `CCCn1c(N)c(C(=O)COC(=O)c2c(C)noc2C)c(=O)n(C)c1=O`, the Potency was inactive: > 76.9 µM.
For `COC(=O)c1ccc(C2CC(=O)Nc3cc(OC)c(OC)cc32)cc1` (stereo unspecified) the value was inactive: > 76.9 µM; for `O=C1CC(Sc2nnc(-c3ccccc3O)o2)C(=O)N1c1ccccc1` (stereo unspecified), inactive: > 76.9 µM; for `CC(=O)/C=C(/C)NC(Cc1c[nH]c2ccccc12)C(=O)O` (stereo unspecified), inactive: > 76.9 µM.
The figure for `Cc1ccccc1OCC(=O)Nc1ccc2c(c1)COC2=O` is inactive: > 76.9 µM; for `Cn1c(SCc2ccccc2Cl)nnc1-c1cnccn1` it is inactive: > 76.9 µM; for `Cc1c(CNC(=O)c2cnn3c2NC(c2ccc(Br)cc2)CC3C(F)(F)F)cnn1C` (stereo unspecified) it is inactive: > 76.9 µM.
In the case of `O=C(CCC(=O)N1CCN(S(=O)(=O)c2ccccc2)CC1)NC1CCCc2ccccc21` (stereo unspecified), the Potency was inactive: > 76.9 µM.
For `COc1ccccc1CN1C(=O)c2ccncc2C1=O` the value was inactive: > 76.9 µM; for `O=C(OCC(=O)N1CCN(c2ccccc2)CC1)c1ccco1`, inactive: > 76.9 µM.
Take `CN(C)CCNC(=O)Cn1nc(-c2ccc(Cl)cc2)ccc1=O`: the Potency is inactive: > 76.9 µM.
For `COc1ccc2nc3c(cc2c1)c(NC(=O)C1CCCO1)nn3CC(C)C` (stereo unspecified) the value was inactive: > 76.9 µM; for `COc1ccc(NC(=O)N2CCCC2)cc1OC`, inactive: > 76.9 µM.
The entry for `O=S(=O)(NC1CCCCC1)c1ccc(S(=O)(=O)N2CCN3CCCC3C2)cc1` (stereo unspecified) is “inactive”; for `CC(=O)c1c(C(C)=O)c(C)n(CCCCn2c(C)c(C(C)=O)c(C(C)=O)c2C)c1C` it is inactive: > 76.9 µM; for `O=S(NCc1ccco1)C12CC3CC(CC(C3)C1)C2` (stereo unspecified) it is inactive: > 76.9 µM.
`Cc1cc(C)n2nc(Cc3ccccc3)nc2n1`: the Potency is inactive: > 76.9 µM.
For `COc1cc(NS(=O)(=O)c2ccc(Br)s2)cc(OC)c1` the value was inactive: > 76.9 µM; for `O=C(Oc1cccc2c(=O)[nH]ccc12)c1ccccc1`, inactive: > 76.9 µM; for `CC(C)CN(C(=O)CSc1nnc2c(Cl)cc(C(F)(F)F)cn12)C1CCS(=O)(=O)C1` (stereo unspecified), inactive: > 76.9 µM.
The figure for `CN1CCN(c2nc3c(c(=O)[nH]c(=O)n3C)n2CC(N)=O)CC1` is inactive: > 76.9 µM; for `CCN1C(=O)/C(=C2\C=Cc3ccccc3N2CC)OC1=S` it is inactive: > 76.9 µM.
The figure for `C=CCn1c(COc2ccccc2)nnc1SCc1ccc(C#N)cc1` is inactive: > 76.9 µM; for `O=C(Cn1cnc2ccccc2c1=O)OCC(=O)c1ccc2c(c1)OCCO2` it is inactive: > 76.9 µM.
For `CN1CCN(/C(=N\S(=O)(=O)c2ccc(F)cc2)c2ccccc2)CC1`, the Potency is inactive: > 76.9 µM.
The figure for `CC1(c2ccc(OC(F)F)cc2)NC(=O)N(CC(=O)NC2CCCCC2)C1=O` (stereo unspecified) is inactive: > 76.9 µM; for `O=C(CSc1nc2ccccc2c(=O)n1CCCO)NCc1ccccc1` it is inactive: > 76.9 µM; for `CC(=O)c1ccc(N2CCN(C(=O)c3ccco3)CC2)c(F)c1` it is inactive: > 76.9 µM.
On to `CCN(CC)c1ccc(C(=S)N2CCN(c3ccccc3)CC2)cc1`, for which the Potency was inactive: > 76.9 µM.
For `Cc1cc2cc(CN(Cc3ccc4c(c3)OCO4)Cc3nnnn3C3CCCC3)c(=O)[nH]c2cc1C` the value was inactive: > 76.9 µM.
Consider `CCNc1nc(Oc2ccc(=O)n(C)n2)nc(N2CCOCC2)n1`, for which the Potency is inactive: > 76.9 µM.
On to `COc1ccc(NC(=O)CCS(=O)(=O)c2cccc3nonc23)c(OC)c1`, for which the Potency was inactive: > 76.9 µM.
For `Cc1ccc(Cl)cc1N1CCN(S(=O)(=O)c2cccc(S(=O)(=O)N3CCCC3)c2)CC1` the value was inactive: > 76.9 µM; for `C/C(NCC(C)(C)CN(C)C)=C(/C#N)C(=O)NCc1ccccc1`, inactive: > 76.9 µM; for `CCCc1ccc(C(=O)CCC(=O)O)cc1`, inactive: > 76.9 µM.
The figure for `CCOC(=O)/C=c1\sc2n(c1=O)CCN=2` is inactive: > 76.9 µM; for `COc1ccc(CNC(=O)c2noc3c2CCCCC3)cc1` it is inactive: > 76.9 µM.
With `CCOC(=O)c1nnn(-c2nonc2N)c1CNc1ccccc1`, the Potency is inactive: > 76.9 µM.
Turning to `Cc1cc(=O)oc(C)c1C(=O)Nc1cnc2ccccc2c1`, the Potency was inactive: > 76.9 µM.
As for `Cc1ccc2nc(-c3ccc(S(=O)(=O)N4CCOCC4)cc3)cn2c1`, the Potency is inactive: > 76.9 µM.
For `O=[n+]1c2c(n([O-])c3cc(Br)ccc31)CCC2` the value was inactive: > 76.9 µM; for `Cc1cccc2cc(CN(CC3CCCO3)C(=O)c3ccco3)c(=O)[nH]c12` (stereo unspecified), inactive: > 76.9 µM.
The figure for `O=C(CN1C(=O)CSC1=O)NCc1ccccc1` is inactive: > 76.9 µM.
Take `CCN1C(=O)C2(C(C(=O)c3ccc(C)o3)=C(O)C(=O)N2CCCN2CCOCC2)c2ccccc21` (stereo unspecified): the Potency is inactive: > 76.9 µM.
